From PubChem BioAssay (NCI)
Values joined by “and” are separate entries in the source; they are usually repeats but may differ in a detail not shown here. Equal values may be shown once.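 In this assay, cells in 96-well plates receive the compound at five concentrations for 48 hours. Endpoints are linearly interpolated between the surrounding concentrations. Here, GI50 denotes the concentration required for 50% inhibition of growth. TGI is the concentration that stops growth completely.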

System: NCI-H322M lung
Experiment: NCI anticancer screen, dose series, 48 h

`Nc1ccn([C@H]2CO[C@@H](CO)[C@@H]2O)c(=O)n1` was tested, and the TGI was > 100 µM.

For `COC(=O)c1s/c(=N\C(=S)N(C)C)n(-c2ccc(Cl)cc2)c1C(=O)OC`, the TGI was > 100 µM.

For `COc1cccc2nc3c(C(=O)NCCN(C)C)cccc3cc12`, the TGI was 14 µM.

For `C[C@H]1C(=O)O[C@@H]2CCN3CC=C(COC(=O)[C@](C)(O)[C@@]1(C)O)[C@H]23`, the TGI was > 100 µM.

With `Cc1cc(N(CCCNc2ccnc3cc(Cl)ccc23)Cc2ccc3c(c2)OCO3)nc(N2CCOCC2)n1` the GI50 was 0.322 µM and the TGI was 16.2 µM.

Compound `Cc1nc2ccc(F)cc2c2c1CCN2c1ccc(Cl)cc1` has a TGI of 46.3 µM.

In the case of `COC1=C(Br)[C@H](O)[C@@]2(C=C1Br)CC(C(=O)NCCCOc1c(Br)cc(C(O)CNC(C)=O)cc1Br)=NO2` (stereo partly specified), the TGI is reported as > 10 µM.

In the case of `C[C@@]12CCC[C@@](C)(C(=O)O)C1CC[C@]13CC(=O)[C@](CO)(C1)[C@@H](O)CC32` (stereo partly specified), the GI50 is reported as > 100 µM and the TGI is reported as > 100 µM.

`CCOc1nnnc2nc[nH]c12` was tested, and the TGI was > 100 µM.

`Cc1cc2c(cc1C(=O)c1ccc(N)cc1)OCO2` was tested, and the TGI was > 100 µM.

Compound `CCOC(=O)c1c2c(n(Cc3ccccc3)c1C)C(=O)C(=O)c1ccccc1-2` has a TGI of 1.01 µM.

With `COC1(OC)CCCc2c1no[n+]2[O-]` the TGI was > 100 µM.

With `COCOC1C=CCCCC2=CC(C)=C(CC1)O2` (stereo unspecified) the TGI was > 100 µM.

`C=CCC1(CN(C)C)CC/C(=C\c2ccc(Cl)cc2)C1=O` (stereo unspecified) was tested, and the TGI was > 100 µM.

In the case of `CN(C)c1ncnc2c1ncn2CCn1cnc2c(N(C)C)ncnc21`, the TGI is reported as > 100 µM.

In the case of `CCc1ccc(/C=C/c2ccc(O)c3ncccc23)[n+](C)c1`, the GI50 is reported as 6.15 µM and the TGI is reported as > 100 µM.

With `C=CCN1CCC(O)(c2cc(C(=O)OCC)[nH]c2-c2cc(C)no2)C1` (stereo unspecified) the TGI was > 100 µM.

`COc1ccc2c(c1)c[n+](C)c1c3cc(OC)c(OC)cc3ccc21` was tested, and the GI50 was 15.8 µM and 7.08 µM and the TGI was 32.1 µM and 23 µM.

For `CC(C(=O)O)c1cccc(Oc2ccccc2)c1` (stereo unspecified), the GI50 was > 100 µM and the TGI was > 100 µM.

For `COc1ccc(/C(Cl)=C(\C=O)c2ccc(OC)cc2)cc1`, the TGI was > 100 µM.

`Cc1cc2cc3c(=O)[nH]c(=O)[nH]c3nc2cc1C` was tested, and the TGI was > 100 µM.

`C=C(Nc1nc2ccc(C)cc2s1)C(=O)C(CC)C(=O)C(CC)CC1C(=O)NC(=O)NC1=O` (stereo unspecified) was tested, and the TGI was > 100 µM.

In the case of `Cc1ncc([N+](=O)[O-])n1CCNCCCCn1ccnc1[N+](=O)[O-]`, the TGI is reported as > 100 µM.

In the case of `CC(C)C(C/C=C1\CC(CO)(COC(=O)C(C)(C)C)OC1=O)C(C)C` (stereo unspecified), the TGI is reported as 24.7 µM.

In the case of `CC(C)=CCC/C(C)=C/CC/C(C)=C/CC(CO)N(C)CC/C=C(\C)CCC=C(C)C` (stereo unspecified), the TGI is reported as 18.8 µM.

`O=C1c2ccccc2C(=O)c2c1nc1ccccc1c2-c1cncc(-c2c3c(nc4ccccc24)C(=O)c2ccccc2C3=O)c1` was tested, and the TGI was 25 µM.

In the case of `C[Si](C)(C)/C(I)=C/CO`, the TGI is reported as 84.3 µM.

In the case of `O=C1C=C(NCCOCCO)C(=O)c2c(O)ccc(O)c21`, the TGI is reported as 82.8 µM.

`CCCCCCCN=C(N)c1ccc(N2CCN(c3ccc(C(N)=NCCCCCCC)cc3)CC2)cc1` was tested, and the GI50 was 0.871 µM and the TGI was 7.92 µM.

For `Nc1n[nH]c(=O)c2c1c(I)cn2C1OC(CO)C(O)C1O` (stereo unspecified), the TGI was > 100 µM.

In the case of `COC(=O)[C@@]1(C)/C(=N/NS(=O)(=O)c2ccc(C)cc2)CCC[C@@H]1C`, the TGI is reported as > 100 µM.

`CCC(=O)O[C@H]1CC[C@H]2[C@@H]3CCC4=C/C(=N/OC(=O)c5cccc6cc7ccccc7nc56)CC[C@]4(C)[C@H]3CC[C@]12C` was tested, and the TGI was > 100 µM.

`COC12C(COC(N)=O)C3=C(C(=O)C(C)=C(N)C3=O)N1CC1C2N1C` (stereo unspecified) was tested, and the TGI was 36.6 µM.

`COc1ccc(/C=C2\c3cc(OC)c(OC)cc3CCN2C(=O)c2ccccc2)cc1OC` was tested, and the TGI was > 100 µM.

In the case of `COc1ccc(C[C@H]2COC(=O)[C@@H]2Cc2cccc(Br)c2)cc1OC`, the TGI is reported as > 100 µM.

With `C=C1C(=O)OC2CC(C)C(C(O)CC(C)O)=CCC12` (stereo unspecified) the TGI was > 83.7 µM.

With `Cn1cnnc1Sc1c([N+](=O)[O-])ncn1C` the TGI was > 100 µM.

`CC(Oc1ccc(OCC2CCCCC2)cc1)C(=O)OCC(=O)c1ccc(-c2ccccc2)cc1` (stereo unspecified) was tested, and the TGI was > 100 µM.

Work on `NCCCn1c2c(c3ccc([N+](=O)[O-])cc3c1=O)C(=O)c1ccccc1-2` yielded a GI50 of 0.292 µM and a TGI of 1.42 µM.

In the case of `CN(C)/N=C1/CCC(C(F)(F)F)(C(F)(F)F)O1`, the TGI is reported as > 100 µM.

For `Cn1c(=O)c(Oc2ccc(F)cc2)cc2cnc(NC3CCOCC3)nc21`, the GI50 was > 25 µM and the TGI was > 25 µM.

`C[N+](C)(C)CC1CCC/C1=N\OC(=O)c1ccccc1` (stereo unspecified) was tested, and the TGI was > 100 µM.

In the case of `C=CCN(C(=O)CNC(=O)C(F)(F)F)c1cc(OCc2ccccc2)c2c(c1)c(C)cn2S(=O)(=O)c1ccccc1`, the TGI is reported as > 100 µM.

In the case of `C(=C\c1ccc(-c2cn3cc(/C=C/C=N/NC4=NCCN4)ccc3n2)cc1)/C=N/NC1=NCCN1`, the TGI is reported as 6.23 µM.

For `CN(C)C(=O)/C=C/c1c[nH]c(=O)[nH]c1=O`, the TGI was > 500 µM.

In the case of `COc1ccc(N=NC(=O)NC(CC(C)C)C(=O)NC(C)C(=O)O)cc1` (stereo unspecified), the TGI is reported as > 100 µM.

In the case of `C[C@H](Nc1cc(Cl)nc2c1cnn2[C@@H]1O[C@H](COP(=O)(O)CP(=O)(O)O)[C@@H](O)[C@H]1O)c1ccccc1F`, the GI50 is reported as > 100 µM and the TGI is reported as > 100 µM.
